Results published in the supplement of paper PMC8728848.
This is one part of the list.

Tests used:
Assay in all cases: glycan array binding signal (z-score within array); higher = stronger binding
Conditions in all cases: glycan notation: IUPAC condensed, linker removed
[1] = molecular target: Gal(b1-4)GlcNAc(b1-3)Gal(b1-4)Glc
Method in brief: (§1)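 The Consortium for Functional Glycomics database supplied 3228 glycan arrays, of which those lacking an available protein sequence were dropped. The binding signal, a within-array Z-score, was averaged across arrays of the same protein sequence and across linkers. Negative scores can be read as non-binding.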

[2] = molecular target: Gal(b1-4)GlcNAc(b1-3)Gal(b1-4)GlcNAc
Method in brief: as §1

[3] = molecular target: Gal(b1-4)GlcNAc(b1-3)Gal(b1-4)GlcNAc(b1-2)Man(a1-3)[Gal(b1-4)GlcNAc(b1-3)Gal(b1-4)GlcNAc(b1-2)Man(a1-6)]Man(b1-4)GlcNAc(b1-4)GlcNAc
Method in brief: as §1

[4] = molecular target: Gal(b1-4)GlcNAc(b1-3)Gal(b1-4)GlcNAc(b1-2)Man(a1-3)[Gal(b1-4)GlcNAc(b1-3)Gal(b1-4)GlcNAc(b1-2)Man(a1-6)]Man(b1-4)GlcNAc(b1-4)[Fuc(a1-6)]GlcNAc
Method in brief: as §1

[5] = molecular target: Gal(b1-4)GlcNAc(b1-3)Gal(b1-4)GlcNAc(b1-2)[Gal(b1-4)GlcNAc(b1-3)Gal(b1-4)GlcNAc(b1-6)]Man(a1-6)[Gal(b1-4)GlcNAc(b1-3)Gal(b1-4)GlcNAc(b1-2)Man(a1-3)]Man(b1-4)GlcNAc(b1-4)GlcNAc
Method in brief: as §1

[6] = molecular target: Gal(b1-4)GlcNAc(b1-3)Gal(b1-4)GlcNAc(b1-2)[Gal(b1-4)GlcNAc(b1-3)Gal(b1-4)GlcNAc(b1-6)]Man(a1-6)[Gal(b1-4)GlcNAc(b1-3)Gal(b1-4)GlcNAc(b1-2)Man(a1-3)]Man(b1-4)GlcNAc(b1-4)[Fuc(a1-6)]GlcNAc
Method in brief: as §1

[7] = molecular target: Gal(b1-4)GlcNAc(b1-3)Gal(b1-4)GlcNAc(b1-3)Gal(b1-4)GlcNAc
Method in brief: as §1

[8] = molecular target: Gal(b1-4)GlcNAc(b1-3)Gal(b1-4)GlcNAc(b1-3)Gal(b1-4)GlcNAc(b1-2)Man(a1-3)[Gal(b1-4)GlcNAc(b1-3)Gal(b1-4)GlcNAc(b1-3)Gal(b1-4)GlcNAc(b1-2)Man(a1-6)]Man(b1-4)GlcNAc(b1-4)GlcNAc
Method in brief: as §1

[9] = molecular target: Gal(b1-4)GlcNAc(b1-3)Gal(b1-4)GlcNAc(b1-3)Gal(b1-4)GlcNAc(b1-2)Man(a1-3)[Gal(b1-4)GlcNAc(b1-3)Gal(b1-4)GlcNAc(b1-3)Gal(b1-4)GlcNAc(b1-2)Man(a1-6)]Man(b1-4)GlcNAc(b1-4)[Fuc(a1-6)]GlcNAc
Method in brief: as §1

[10] = molecular target: Gal(b1-4)GlcNAc(b1-3)Gal(b1-4)GlcNAc(b1-3)Gal(b1-4)GlcNAc(b1-2)[Gal(b1-4)GlcNAc(b1-3)Gal(b1-4)GlcNAc(b1-3)Gal(b1-4)GlcNAc(b1-6)]Man(a1-6)[Gal(b1-4)GlcNAc(b1-3)Gal(b1-4)GlcNAc(b1-3)Gal(b1-4)GlcNAc(b1-2)Man(a1-3)]Man(b1-4)GlcNAc(b1-4)[Fuc(a1-6)]GlcNAc
Method in brief: as §1

[11] = molecular target: Gal(b1-4)GlcNAc(b1-3)Gal(b1-4)GlcNAc(b1-3)Gal(b1-4)GlcNAc(b1-3)Gal(b1-4)GlcNAc(b1-2)Man(a1-3)[Gal(b1-4)GlcNAc(b1-3)Gal(b1-4)GlcNAc(b1-3)Gal(b1-4)GlcNAc(b1-3)Gal(b1-4)GlcNAc(b1-2)Man(a1-6)]Man(b1-4)GlcNAc(b1-4)GlcNAc
Method in brief: as §1

[12] = molecular target: Gal(b1-4)GlcNAc(b1-3)Gal(b1-4)GlcNAc(b1-3)Gal(b1-4)GlcNAc(b1-3)Gal(b1-4)GlcNAc(b1-2)Man(a1-3)[Gal(b1-4)GlcNAc(b1-3)Gal(b1-4)GlcNAc(b1-3)Gal(b1-4)GlcNAc(b1-3)Gal(b1-4)GlcNAc(b1-2)Man(a1-6)]Man(b1-4)GlcNAc(b1-4)[Fuc(a1-6)]GlcNAc
Method in brief: as §1

[13] = molecular target: Gal(b1-4)GlcNAc(b1-3)Gal(b1-4)GlcNAc(b1-3)Gal(b1-4)GlcNAc(b1-3)Gal(b1-4)GlcNAc(b1-2)[Gal(b1-4)GlcNAc(b1-3)Gal(b1-4)GlcNAc(b1-3)Gal(b1-4)GlcNAc(b1-3)Gal(b1-4)GlcNAc(b1-6)]Man(a1-6)[Gal(b1-4)GlcNAc(b1-3)Gal(b1-4)GlcNAc(b1-3)Gal(b1-4)GlcNAc(b1-3)Gal(b1-4)GlcNAc(b1-2)Man(a1-3)]Man(b1-4)GlcNAc(b1-4)[Fuc(a1-6)]GlcNAc
Method in brief: as §1

[14] = molecular target: Gal(b1-4)GlcNAc(b1-3)Gal(b1-4)GlcNAc(b1-3)Gal(b1-4)GlcNAc(b1-3)Gal(b1-4)GlcNAc(b1-3)Gal(b1-4)GlcNAc(b1-2)Man(a1-3)[Gal(b1-4)GlcNAc(b1-3)Gal(b1-4)GlcNAc(b1-3)Gal(b1-4)GlcNAc(b1-3)Gal(b1-4)GlcNAc(b1-3)Gal(b1-4)GlcNAc(b1-2)Man(a1-6)]Man(b1-4)GlcNAc(b1-4)GlcNAc
Method in brief: as §1

[15] = molecular target: Gal(b1-4)GlcNAc(b1-3)Gal(b1-4)GlcNAc(b1-3)Gal(b1-4)GlcNAc(b1-3)Gal(b1-4)GlcNAc(b1-3)Gal(b1-4)GlcNAc(b1-2)Man(a1-3)[Gal(b1-4)GlcNAc(b1-3)Gal(b1-4)GlcNAc(b1-3)Gal(b1-4)GlcNAc(b1-3)Gal(b1-4)GlcNAc(b1-3)Gal(b1-4)GlcNAc(b1-2)Man(a1-6)]Man(b1-4)GlcNAc(b1-4)[Fuc(a1-6)]GlcNAc
Method in brief: as §1

[16] = molecular target: Gal(b1-4)GlcNAc(b1-3)Gal(b1-4)GlcNAc(b1-3)Gal(b1-4)GlcNAc(b1-3)Gal(b1-4)GlcNAc(b1-3)Gal(b1-4)GlcNAc(b1-2)[Gal(b1-4)GlcNAc(b1-3)Gal(b1-4)GlcNAc(b1-3)Gal(b1-4)GlcNAc(b1-3)Gal(b1-4)GlcNAc(b1-3)Gal(b1-4)GlcNAc(b1-6)]Man(a1-6)[Gal(b1-4)GlcNAc(b1-3)Gal(b1-4)GlcNAc(b1-3)Gal(b1-4)GlcNAc(b1-3)Gal(b1-4)GlcNAc(b1-3)Gal(b1-4)GlcNAc(b1-2)Man(a1-3)]Man(b1-4)GlcNAc(b1-4)[Fuc(a1-6)]GlcNAc
Method in brief: as §1

[17] = molecular target: Gal(b1-4)GlcNAc(b1-3)Gal(b1-4)GlcNAc(b1-3)Gal(b1-4)GlcNAc(b1-3)Gal(b1-4)GlcNAc(b1-3)Gal(b1-4)GlcNAc(b1-3)Gal(b1-4)GlcNAc(b1-2)Man(a1-3)[Gal(b1-4)GlcNAc(b1-3)Gal(b1-4)GlcNAc(b1-3)Gal(b1-4)GlcNAc(b1-3)Gal(b1-4)GlcNAc(b1-3)Gal(b1-4)GlcNAc(b1-3)Gal(b1-4)GlcNAc(b1-2)Man(a1-6)]Man(b1-4)GlcNAc(b1-4)GlcNAc
Method in brief: as §1

[18] = molecular target: Gal(b1-4)GlcNAc(b1-3)Gal(b1-4)GlcNAc(b1-3)GalNAc
Method in brief: as §1

[19] = molecular target: Gal(b1-4)GlcNAc(b1-3)Gal(b1-4)GlcNAc(b1-3)[Gal(b1-4)GlcNAc(b1-3)Gal(b1-4)GlcNAc(b1-6)]GalNAc
Method in brief: as §1

B1: mCC1-Hexahis-Precomplexed (Mus musculus), P31809 (protein)
chain: MELASAHLHKGQVPWGGLLLTASLLASWSPATTAEVTIEAVPPQVAEDNNVLLLVHNLPLALGAFAWYKGNTTAIDKEIARFVPNSNMNFTGQAYSGREIIYSNGSLLFQMITMKDMGVYTLDMTDENYRRTQATVRFHVHPILLKPNITSNNSNPVEGDDSVSLTCDSYTDPDNINYLWSRNGESLSEGDRLKLSEGNRTLTLLNVTRNDTGPYVCETRNPVSVNRSDPFSLNIIYGPDTPIISPSDIYLHPGSNLNLSCHAASNPPAQYFWLINEKPHASSQELFIPNITTNNSGTYTCFVNNSVTGLSRTTVKNITVLEPVTQPFLQVTNTTVKELDSVTLTCLSNDIGANIQWLFNSQSLQLTERMTLSQNNSILRIDPIKREDAGEYQCEISNPVSVRRSNSIKLDIIFDPTQGGLSDGHHHHHH
glycan array binding signal (z-score) [1]: -0.183 | glycan array binding signal (z-score) [2]: -0.228 | glycan array binding signal (z-score) [3]: 3.85 | glycan array binding signal (z-score) [4]: -0.066 | glycan array binding signal (z-score) [5]: -0.167 | glycan array binding signal (z-score) [6]: -0.053 | glycan array binding signal (z-score) [7]: -0.242 | glycan array binding signal (z-score) [8]: 4.96 | glycan array binding signal (z-score) [9]: -0.181 | glycan array binding signal (z-score) [10]: -0.194 | glycan array binding signal (z-score) [11]: -0.133 | glycan array binding signal (z-score) [12]: -0.19 | glycan array binding signal (z-score) [13]: -0.071 | glycan array binding signal (z-score) [14]: -0.227 | glycan array binding signal (z-score) [15]: -0.193 | glycan array binding signal (z-score) [16]: -0.084 | glycan array binding signal (z-score) [17]: 0.019 | glycan array binding signal (z-score) [18]: 6.28 | glycan array binding signal (z-score) [19]: 4.46
